Data: the supplement of paper PMC11417369
± gives the standard deviation of the averaged measurements. The list shows a part of the results.

Each sequence was assayed on PfAP2-I AP2 domain 3 (GST-tagged) (assay: gcPBM binding intensity (ln(normalized median fluorescence intensity)); higher = stronger DNA binding).
Method in brief: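 Alexa488 anti-GST antibody, scanned at 488 nm, detected GST-tagged P. falciparum DNA-binding domains that had been expressed in E. coli and incubated for 1 h on an Agilent 4 × 180k array. The array carried primer-extended double-stranded 36-bp intergenic genomic probes and negative controls. Binding intensity is the highest Masliner-normalised natural-log median intensity across replicate spots of either orientation of each probe.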

| Sequence | gcPBM binding intensity (ln) |
| --- | --- |
| AACAAATTTTTTTTTCCTTTTTTTTTTTTACTTCAT [CACACA_negctrl_site1214] | 7.21 ± 0.79 |
| TTATTAACCAAACGCACATGCAAAATATATTATATA [TGCATGCA_site915] | 8.46 ± 0.28 |
| AAATAAATAATATGTAAACACACAAAAAATAAAAAT [CACACA_site8307] | 7.73 ± 0.69 |
| TTTTTTTTTCGGAAAAGTACAAAACTTTTTTATAAT [XGTACX_site4670] | 7.72 ± 0.45 |
| ACACAATTGAAATAGTGTACAAAATGTTGTTACATA [XGTACX_site8671] | 7.61 ± 0.36 |
| TTATATATATTTAAATTTTATCTCACATATATATAT [TGCATGCA_negctrl_site275] | 8.83 ± 0.13 |
| TCCCTAAAAAATGATAAATGGAGACAATTCCGACAA [GTGCAC_negctrl_site209] | 7.45 ± 0.57 |
| AAAAAAAAAAAAATCACACACAATATGAATTTATAG [CACACA_site601] | 7.54 ± 0.49 |
| AATACAATTTCTAGCACACAAAATATTATTATAATT [CACACA_site3223] | 8.02 ± 0.5 |
| AAAAAACAATCTCATACACACTAGGGATTAATTATT [CACACA_site5051] | 7.41 ± 0.71 |
| TATAGAAGCGTTCACACACACACATACATACCCATA [CACACA_site4915] | 8.02 ± 0.42 |
| TATAAAAAATAAAAAGTTTAATGAATATTTCTTTTA [TGCATGCA_negctrl_site379] | 6.99 ± 0.46 |
| TCACATGGAAAAAAGTGTACATAATTATGTATAAAT [XGTACX_site2827] | 8.05 ± 0.52 |
| ATATATATAACATATACACACGTTCATATATATATA [CACACA_site4416] | 9.35 ± 0.099 |
| TTACAAGTAAAAGGTACACACATTATATATACAAAT [CACACA_site8290] | 7.97 ± 0.55 |
| TAATTTTTATTTTATTTTATTTTTTTTTTTTTTATT [CACACA_negctrl_site1671] | 7.14 ± 0.49 |
| CTAGCAAATACATACACACACACACCGATACATATA [CACACA_site9164] | 8 ± 0.48 |
| ACAAGACAGATATATACACACATACATACATACATA [CACACA_site7472] | 8.12 ± 0.64 |
| TTTCTTAAAAAAAAAAAAAAAAGAAGATAAATAAAA [CACACA_negctrl_site289] | 7.37 ± 0.76 |
| TTTAACTTATTCAATGCACACATTTTAATAAGATAT [CACACA_site1967] | 9.41 ± 0.59 |
| ATATTTATTTATATTACACACATGTGCAATTAAACT [CACACA_site6928] | 9.67 ± 0.26 |
| ATATAATAGAAGTGTACACACATATTTATGTCTGTA [CACACA_site3121] | 7.88 ± 0.36 |
| ATGGATAACAATATGTGTACACATTTATATCTCCAC [XGTACX_site5457] | 8.16 ± 0.2 |

| Sequence | gcPBM binding intensity (ln) |
| --- | --- |
| ATACATTTTTTTTATACGCACACGTCATACTTTTAA [CACACA_site1638] | 8.7 ± 0.49 |
| AAGCATGGATATTTTACACACATTTCCACGTAACAA [CACACA_site3141] | 8.32 ± 0.6 |
| ATACATATATATAGGTGTACATATAATATATATATA [XGTACX_site2228] | 8.95 |
| AACCATGTTAACAATGCATGCATCACTATATAAACG [TGCATGCA_site421] | 8.1 ± 0.64 |
| ATATTTTTTGGAAAGTGTACAATATTATATATTAAA [XGTACX_site2163] | 7.82 ± 0.44 |
| GAAATACCGGAAAGCAAACACACATTTTAAAACCAT [CACACA_site3861] | 7.9 ± 0.67 |
| ACTTATATTATAAATTGTACAAATATTATATTTGGT [XGTACX_site1424] | 7.76 ± 0.54 |
| CACTTACATAATTATTGTACAGATATTATCAAATAA [XGTACX_site567] | 7.92 ± 0.23 |
| TTATTTTGTTTATTATGTACACAAAGACATAATAAT [XGTACX_site5648] | 7.88 ± 0.33 |
| TTTTTTTTTTTTAAATGTACTTATCAACTTTTATAT [XGTACX_site4641] | 7.95 ± 0.69 |
| AAAAAAAAAAGACACACACACACACGCATATACATA [CACACA_site7289] | 7.82 ± 0.38 |
| TACGTAAAAATAATACGTACATATATTTATAGAAAA [XGTACX_site4959] | 8.06 ± 0.13 |
| ACGGACAATACGGAAACACACAAGTTATTTTATCAT [CACACA_site7310] | 7.59 ± 0.73 |
| AATAAAATAATCCAAGTGCATATGTAAAAATACATT [GTGCAC_site9576] | 8.76 ± 0.26 |
| AATATATGTAAATGGACACACACATATATATATATA [CACACA_site9220] | 9.26 ± 0.58 |
| TTCTGTGTCTAAAAATGTACGGGAATATATAAAAGT [XGTACX_site2090] | 8.5 ± 0.61 |
| ACATAATATATATATTAACACACATCCTTTTATGTA [CACACA_site8317] | 8.08 ± 0.54 |
| CGGCACGTGATATATACACACATATAGATATATACA [CACACA_site6408] | 7.79 ± 0.65 |
| TGGATAATGAATGATGCACACTAAAAATATTCTACA [CACACA_site5912] | 8.65 ± 0.2 |
| TATTTGTAAATCGATACACACATATATCTTAATATA [CACACA_site4273] | 7.43 ± 0.41 |
| CTCAATATTATTACTACACACAAATTAATATTTTCC [CACACA_site55] | 7.92 ± 0.36 |
| ATATATACTATATTTTAACACACAAAAAAAAAAAAT [CACACA_site8277] | 7.96 ± 0.38 |
| TGTTAATTGAATGCAATCTGAATTTTTTTACATAAT [CACACA_negctrl_site1002] | 7.4 ± 0.57 |

| Sequence | gcPBM binding intensity (ln) |
| --- | --- |
| CACCCACCCAGACACACACACACAAAAAAAAAAAGA [CACACA_site499] | 8.12 ± 0.27 |
| CTTTTTTCAAGACACACACACAAGAAAATATAAATA [CACACA_site7455] | 7.97 ± 0.4 |
| GAAAATCAGTTAAACACACACATAAAAAAAAAAAAA [CACACA_site2875] | 7.96 ± 0.4 |
| ATCATATGTATGCATACACACAAAAAGTTATTTATA [CACACA_site6325] | 7.9 ± 0.41 |
| TCAAGTATTAAAATGGGTACATAAATATGTGTATAT [XGTACX_site5884] | 7.87 ± 0.53 |
| CATATAAAAAAATAGACACACATTTTATATAATACG [CACACA_site1896] | 7.67 ± 0.62 |
| TATTTTTCTTTTTTTTTTTTTTTTATATTATACGTG [XGTACX_negctrl_site363] | 7.46 ± 0.41 |
| CTTTTTAAATTAAAATGTACAGAAAAATATTATTAT [XGTACX_site8760] | 7.72 ± 0.69 |
| AAATTATGCATCGAGGTGCGTCTTAAAATATAGTGG | 9.27 ± 0.38 |
| ATATAAATTCAAATTACACACATTTATTTTTTTTAC [CACACA_site53] | 7.7 ± 0.71 |
| ACTAATAATTTGTCGGTGCATAAAATTATTTTTATT [GTGCAC_site9840] | 10.8 ± 0.43 |
| CTACATAATAAAAAAAGTACATTCTAATAAATTGAC [XGTACX_site4504] | 7.79 ± 0.3 |
| TATATGCCTATAAGAAGTACTGTGTAATGTAATATA [XGTACX_site8089] | 7.89 ± 0.45 |
| TAAACATAAATATGCACACATATACATATATTCATA [CACACA_site2667] | 8.69 ± 0.099 |
| AAGAAAAATATATTTATATATATATATATTAAATAT [TGCATGCA_negctrl_site500] | 7.53 ± 0.38 |
| AATTTTATACGATAAACATGCAAATAAATAAATAAA [TGCATGCA_site227] | 8.06 ± 0.9 |
| TATAATAATATTTATTGTACAATTAGTTTAATTCAT [XGTACX_site272] | 7.77 ± 0.31 |
| TTTATTATATAAACATGTACACAATTTGGTATATTC [XGTACX_site3112] | 8.02 ± 0.37 |
| ACAGCCAATACGGAAACACACAAGTTATTTTATCAT [CACACA_site5507] | 7.71 ± 0.57 |
| AAAGAAAAAAAAAACACACACACACCCATTCAATAT [CACACA_site38] | 8 ± 0.54 |
| AATATCTGTATATCCACACACATATATATATATATA [CACACA_site4987] | 9.34 ± 0.45 |
| TAATCGGTAATATTAACACACACATTTATATATATT [CACACA_site8274] | 7.96 ± 0.26 |
| TAATTTCTTATGTAGTGTACAAATAATATATGATAT [XGTACX_site597] | 8.01 ± 0.35 |

| Sequence | gcPBM binding intensity (ln) |
| --- | --- |
| AATATCACCACATTGTTACTATAATATATAAAAAAG [XGTACX_negctrl_site384] | 7.87 ± 0.43 |
| AAAAGGAGAAATATTGCACACGTGCAAAATGGTATG [CACACA_site4300] | 11.3 ± 0.085 |
| GTATTAATAAAAATACGTACTTATTATTTATAATAA [XGTACX_site7672] | 7.665 ± 0.035 |
| ATTATTCATATAACACGTACAAAACGAAAAACAAAT [XGTACX_site3873] | 8.41 ± 0.58 |
| ATTCATAAAAGTTGTACATGCAATTTTTTTTTTTTT [TGCATGCA_site270] | 7.79 ± 0.53 |
| ATTTTGTTATGAAACACACACATATATATATATATA [CACACA_site3650] | 9.6 ± 0.54 |
| ATATATGTAACATATTGTACATATATGTATGTATGT [XGTACX_site3281] | 8.49 ± 0.42 |
| ATGATAAAATTATGTAGTACATATTTGAATGTAAAT [XGTACX_site688] | 7.78 ± 0.58 |
| AATATAAGTAGTACAGTGCATATAATAATTAGAAGA [GTGCAC_site9485] | 10.1 ± 0.13 |
| TTGATTTATATTTAATGTACATTTTTACAGAAAATT [XGTACX_site2747] | 7.68 ± 0.42 |
| CCATAAAAAGGATACACACACACACGCACATATATA [CACACA_site6550] | 8.1 ± 0.37 |
| GATTAAACACAAAGAAGTACGGACATAAAAAAAAAA [XGTACX_site3686] | 8.16 ± 0.69 |
| TCGTGGTTTTAATAAGTGCGCAATTTAAATATTTTT | 9.31 ± 0.18 |
| TATTATTATTATTACACACACAATTATATTTACCCC [CACACA_site503] | 8.33 ± 0.58 |
| GTATATATATATATATATATATATTTTTATTTATTT [CACACA_negctrl_site589] | 8.18 ± 0.35 |
| ACATAGCAATGTTTCACACACAAGAAAAAATACAAT [CACACA_site2379] | 7.87 ± 0.64 |
| GAAATGTGGTAATATACACACACGCATATATTTATA [CACACA_site6285] | 7.75 ± 0.45 |
| TTTGAACTCTTAAGTGGTACAAATTTGTATTTTCTC [XGTACX_site2322] | 7.91 ± 0.5 |
| TATAAATAAAAATATACACACTGTATTATTGTAATA [CACACA_site7721] | 7.58 ± 0.3 |
| AATGGAATATATATTTGTACATAAATATTATAATAA [XGTACX_site8524] | 7.7 ± 0.52 |
